Laboratory results: patent US20230054379A1, “COMPOSITION AND METHOD OF TREATMENT TO SIMU[…] THE […] EFFICACY OF OPIOIDS AND REDUCE THEIR ADDICTIVE POWER” (Centro de Investigacion Y Desarrollo de Medicamentos (CIDEM), priority 2020, published 2023)
Values joined by “and” are separate entries in the source; they are usually repeats but may differ in a detail not shown here. Identical values can stand only once.

Assays:
[1] = Intensity of mechanical hypernociception (electronic von Frey) in CCI or sham rats after chronic morphine or saline
[2] = Response to an acute dose of morphine in pre-treated CCI rats (electronic von Frey)

SMILES | Intensity of mechanical hypernociception, difference (Δ) of the withdrawal threshold ([1]; CCI rats, morphine 10 mg/kg s/c every 12 hours for 4 days (vehicle p.o.), day 11 post-surgery, 19 hours after last morphine) [grams] | Intensity of mechanical hypernociception, difference (Δ) of the withdrawal threshold ([1]; CCI rats, morphine 10 mg/kg s/c every 12 hours for 4 days (vehicle p.o.), day 11 post-surgery, 19 hours after last morphine, listed as MOR) [grams] | Intensity of mechanical hypernociception, difference (Δ) of the withdrawal threshold ([1]; CCI rats, morphine 10 mg/kg s/c every 12 hours for 4 days (vehicle p.o.), day 23 post-surgery) | Intensity of mechanical hypernociception, difference (Δ) of the withdrawal threshold ([1]; CCI rats, morphine 10 mg/kg s/c every 12 hours for 4 days (vehicle p.o.), day 23 post-surgery, listed as MOR) [grams] | Intensity of mechanical hypernociception, difference (Δ) of the withdrawal threshold ([1]; Sham CCI rats, morphine 10 mg/kg s/c every 12 hours for 4 days, day 11 post-surgery) [grams] | Intensity of mechanical hypernociception, difference (Δ) of the withdrawal threshold ([1]; Sham CCI rats, morphine 10 mg/kg s/c every 12 hours for 4 days, day 23 post-surgery) [grams] | Intensity of mechanical hypernociception (Δ of withdrawal threshold) ([2]; CCI-MOR group (morphine 10 mg/kg s.c. every 12 hours for 4 days), time 0, prior to acute morphine) [grams] | Intensity of mechanical hypernociception (Δ of withdrawal threshold) ([2]; CCI-MOR group, 20 minutes after acute morphine 1 mg/kg i.p.) [grams] | Intensity of mechanical hypernociception (Δ of withdrawal threshold) ([2]; CCI-SS group, 20 minutes after acute morphine 1 mg/kg i.p., day 11 after surgery) [grams] | Intensity of mechanical hypernociception, difference (Δ) of the withdrawal threshold ([1]; CCI rats, morphine 10 mg/kg s/c every 12 hours for 4 days + JM-20 10 mg/kg p.o. for 5 days, day 11 post-surgery) [grams] | Intensity of mechanical hypernociception, difference (Δ) of the withdrawal threshold ([1]; CCI rats, morphine 10 mg/kg s/c every 12 hours for 4 days + JM-20 10 mg/kg p.o. for 5 days, day 23 post-surgery, 12 days after discontinuation) | Intensity of mechanical hypernociception (Δ of withdrawal threshold) ([2]; CCI-MOR-JM-20 group, 20 minutes after acute morphine 1 mg/kg i.p.) [grams] | Intensity of mechanical hypernociception (Δ of withdrawal threshold) ([2]; CCI-MOR-JM-20 group, 40 minutes after acute morphine 1 mg/kg i.p.) [grams] | Intensity of mechanical hypernociception (Δ of withdrawal threshold) ([2]; CCI-MOR-JM-20 group, time 0, prior to acute morphine) [grams] | Intensity of mechanical hypernociception (Δ of withdrawal threshold) ([2]; CCI-SS-JM-20 group (JM-20 pre-treatment 5 days), time 0, prior to acute morphine) [grams] | Intensity of mechanical hypernociception (Δ of withdrawal threshold) ([2]; CCI-SS-JM-20 group, 20 minutes after acute morphine 1 mg/kg i.p.) [grams] | Intensity of mechanical hypernociception (Δ of withdrawal threshold) ([2]; CCI-SS-JM-20 group, 40 minutes after acute morphine 1 mg/kg i.p.) [grams] | Intensity of mechanical hypernociception (Δ of withdrawal threshold) ([2]; CCI-SS-JM-20 group, 120 minutes after acute morphine 1 mg/kg i.p.) [grams]
CN1CC[C@]23c4c5ccc(O)c4O[C@H]2[C@@H](O)C=C[C@H]3[C@H]1C5 [morphine, reference compound] | 45.09±1.60 | 45.09 ± 1.60 | 44.82±1.39 grams and 45.18±1.5 grams | 44.82 ± 1.39 | 40.49 ± 2.57 | 37.49 ± 2.10 | 45.09±1.60 | 39.92±1.78 | 30.13±1.55 | – | – | – | – | – | – | – | – | –
CCOC(=O)C1=C(C)NC2=C(C=Nc3ccccc3N2)C1c1ccccc1[N+](=O)[O-] (stereo not drawn) [JM-20, 3-ethoxycarbonyl-2-methyl-4-(2-nitrophenyl)-4,11-dihydro-1H-pyrido [2,3-b] [1,5] benzodiazepine] | – | – | – | – | – | – | – | – | – | 17.18±3.35 | 16.40±3.8 grams and 16.40±3.82 grams | 6.40±3.28 | 7.52±2.19 | 17.18±3.35 | 10.68±5.89 | -8.33±2.03 | -6.11±1.90 | 3.34±1.71
